Data taken from PubChem BioAssay AID686971 (National Center for Advancing Translational Sciences (NCATS), 2013).
About 7,500 (2.1%) of roughly 360,000 compounds were called active. Inconclusive means that the source gave no clear call. Such entries were picked first, then a sample of the others. Calls come from the whole dose curve; as a rule, active = well fitted cell-killing curve with a large enough effect; inconclusive = small, poorly fitted or top-dose-only effect, or effect the other way, or another doubt; inactive = no such curve, though single readings can be large or run the other way. Potencies of inconclusive entries are left out as doubtful fits.
Potency is the fitted concentration of half-maximal effect; tags give direction and shape of the fitted curve.

Assay: qHTS for induction of synthetic lethality in tumor cells producing 2HG: qHTS for the HT-1080-IDH1KD cell line;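 for activity, negative = toxicity: 0% = DMSO wells and -100% = cell-free medium wells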
Settings: HT-1080 IDH1 knockdown viability, ATP luminescence, 48 h; activity, negative = toxicity: at 46.1 µM (top of the series) unless noted
Procedure, shortened: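 CellTiter-Glo luminescence after 48 h compound exposure at 37 degrees C of IDH1-knockdown HT-1080 cells in 5% FBS RPMI. %Activity scaled between DMSO wells and cell-free media wells, with curves fitted and assigned curve classes.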
In the case of `CSC1=C(C#N)C(=O)NC(c2ccccc2O)S1` (configuration not stated), the “activity, negative = toxicity” value is reported as inactive: 14.1%. For `Cc1ccc(C(=O)Nc2ccccc2N2CCN(C(=O)C(C)C)CC2)cc1C`, the “activity, negative = toxicity” value was inactive: -23.4%. For `CCN(C[C@H]1N[C@@](CC)(C(=O)OC)[C@H]2C(=O)N(Cc3ccccc3)C(=O)[C@@H]12)C(=O)Nc1ccc(OC)cc1`, the “activity, negative = toxicity” value was inactive: -3%. In the case of `CCCc1nc2oc3c(NCCN(C)C)ncnc3c2c2c1CCCC2`, the Potency is reported as inconclusive [cytotoxic, single point]. With `Fc1ccccc1CN1CCN(c2ncccn2)CC1` the Potency was inconclusive [rising, partial curve, poor fit]. For `Cc1cccc(NC(=S)NC(=O)C(c2ccccc2)c2ccccc2)n1`, the Potency was inconclusive [cytotoxic, single point]. With `CCO[C@@H]1OC(C(=O)N2CCN(Cc3ccc4c(c3)OCO4)CC2)=C[C@H](c2ccc(C(F)(F)F)cc2)[C@H]1CCCO` the Potency was inconclusive [cytotoxic, partial curve]. With `CN(C)S(=O)(=O)c1cccc(COC(=O)Cc2c(F)cccc2Cl)c1` the “activity, negative = toxicity” value was inactive: 2.26%. With `Fc1cc(Br)ccc1COc1ccc(-c2nnco2)cc1` the “activity, negative = toxicity” value was inactive: 1.42%. For `COc1ccc(C(=O)Nc2ccc(NC(C)=O)cc2)cc1S(=O)(=O)N1CCCCC1C` (configuration not stated), the Potency was inconclusive [cytotoxic, single point]. In the case of `CC(=O)c1cnn(-c2ccc(Cl)cc2)c1C`, the “activity, negative = toxicity” value is reported as inactive: 20.6%. In the case of `CCOC(=O)c1ccc(S(=O)(=O)N2CCN(C3CC(=O)N(c4ccc(OC)cc4)C3=O)CC2)cc1` (configuration not stated), the “activity, negative = toxicity” value is reported as inactive: 2.57%. With `Cc1oc(C(=O)Nc2ccc(O)cc2)cc1COc1ccccc1` the Potency was inconclusive [cytotoxic, single point]. For `COc1cccc(-c2cccc3c2NC(=O)C3(C)Cc2cccc(F)c2)c1` (configuration not stated), the Potency was inconclusive [cytotoxic, partial curve]. With `COc1ccc(/C=N/NC(=O)c2ccc(COc3ccccc3Cl)o2)c(OC)c1C` the Potency was inconclusive [cytotoxic, single point]. For `CN(CC(=O)NC(=O)NCc1ccccc1)Cc1ccc(Cl)cc1`, the “activity, negative = toxicity” value was inactive: -2.16%. For `O=C(CN(C(=O)Cn1nnc(-c2ccccc2F)n1)c1cccc2c1CCCC2)NCc1ccccc1`, the “activity, negative = toxicity” value was inactive: 7.91%. In the case of `Cc1ccc(S(=O)(=O)c2cc3c(=O)n4cccc(C)c4nc3n(CC3CCCO3)c2=N)cc1C` (configuration not stated), the “activity, negative = toxicity” value is reported as inactive: -0.824%. With `CCN(CC)CCOC(=O)c1ccc(NC(=O)c2cn(-c3ccccc3)nc2-c2cccs2)cc1` the Potency was inconclusive [cytotoxic, single point]. In the case of `COc1ccc(/C=N/Nc2nncn2N)cc1Br`, the Potency is reported as inconclusive [cytotoxic, single point]. With `O=C(CCl)Nc1nc(-c2ccco2)c(-c2ccco2)s1` the “activity, negative = toxicity” value was inactive: -25.1%. With `CCNc1nc(NCC)nc(N(C)N)n1` the “activity, negative = toxicity” value was inactive: 8.11%. With `COc1ccc(-n2c(COc3ccc(Cl)cc3)nnc2SCc2ccc(C#N)cc2)cc1` the Potency was inconclusive [cytotoxic, single point]. With `COc1ccc(-c2noc(CN(C)CCC3CCCCO3)n2)cc1` (configuration not stated) the “activity, negative = toxicity” value was inactive: -1.39%. In the case of `c1ccc(CNc2nc(-c3cccs3)nc3ccccc23)nc1`, the Potency is reported as inconclusive [cytotoxic, partial curve]. In the case of `CN(Cc1cc(Cl)cc(Cl)c1)CC(C(=O)c1ccccc1)c1ccccc1` (configuration not stated), the Potency is reported as inconclusive [cytotoxic, single point]. For `CCN(CC(=O)Nc1ccc(NC(C)=O)cc1)C(=O)/C=C/c1ccc2c(c1)OCO2`, the Potency was inconclusive [cytotoxic, single point]. In the case of `C[C@@H]1C(c2ccccc2)=NN(c2ccc(Br)cc2)[C@H]1C(=O)N1CCOC1=O`, the Potency is reported as inconclusive [cytotoxic, single point]. With `Nc1nc(=S)c2[nH]c(=S)[nH]c2[nH]1` the Potency was inconclusive [cytotoxic, single point]. For `CC1(C)Cc2ccccc2-c2nc(NCCO)n(-c3ccccc3)c(=O)c21`, the “activity, negative = toxicity” value was inactive: -0.502%. With `CCOC(=O)N1CCC(NC(=O)c2ccc3c(c2)N=C(C)c2c(C)ccc(C)c2S3)CC1` the Potency was active: 2.31 µM. In the case of `Cc1ccc(COc2ccc(Br)cc2/C=N/O)cc1`, the Potency is reported as inconclusive [cytotoxic, single point]. In the case of `O=[N+]([O-])c1cc(O)c2ncccc2c1`, the Potency is reported as active: 2.31 µM. With `CC(C)c1ccc(NC(=O)CN2C(=O)NC3(CCCCCCC3)C2=O)cc1` the Potency was inconclusive [cytotoxic, partial curve]. With `CC(=O)Nc1ccc(/C=N/Nc2nc3ccccc3[nH]2)cc1` the Potency was inconclusive [cytotoxic, single point]. With `Cc1cccc(Nc2nc(N)nc(CN3CCC(C)CC3)n2)c1C` the Potency was inconclusive [cytotoxic, single point]. With `O=C(Nc1ccc(N2CCOCC2)cc1)c1cccc(S(=O)(=O)N2CCCCC2)c1` the “activity, negative = toxicity” value was inactive: -2.96%. For `COc1ccc(/C=C/c2nnc(NC(=O)COc3cccc(C)c3)s2)cc1`, the Potency was inconclusive [cytotoxic, single point]. For `O=C(NCCOC12CC3CC(CC(C3)C1)C2)c1cccc(Br)c1`, the Potency was inconclusive [cytotoxic, single point]. With `COc1ccccc1C(=O)Nc1cccc(NC(=O)c2ccccc2OC)n1` the Potency was inconclusive [rising, full curve]. With `CCOC(=O)c1c(C)[nH]c(C(=O)N/N=C/c2cc([N+](=O)[O-])ccc2O)c1C` the Potency was inconclusive [cytotoxic, partial curve, poor fit]. For `C[n+]1cccc(/C=N/NC(=O)CC23CC4CC(CC(C4)C2)C3)c1`, the “activity, negative = toxicity” value was inactive: 8.53%. In the case of `OC1CC2CCC(C1)N2CCCN1c2ccccc2Sc2ccc(Cl)cc21` (configuration not stated), the Potency is reported as active: 4.61 µM. For `Cc1cc(C)nc(Nc2ncc(O)n2-c2ccc(Br)cc2)n1`, the “activity, negative = toxicity” value was inactive: 28.1%. For `C=CCCC(=O)Nc1nc(C)c(-c2csc(Nc3ccc(Cl)cc3Cl)n2)s1`, the Potency was inconclusive [cytotoxic, single point]. For `NNC(=O)c1ccc2nc(-c3ccc(Br)cc3)cn2c1`, the Potency was inconclusive [cytotoxic, single point]. For `COc1ccccc1-c1oc2ccccc2c1C#CC1(O)CCCCC1`, the Potency was inconclusive [cytotoxic, single point]. In the case of `O=C(CSc1nc2ccccc2[nH]1)Nc1ccc(F)c(F)c1`, the Potency is reported as inconclusive [cytotoxic, single point]. With `O=C(Nc1ccc([N+](=O)[O-])cc1)Nc1ccon1` the Potency was active: 0.731 µM. For `CC(=O)Nc1cc(-c2ccc(N(C)C)cc2)cn2c(-c3ccc(F)c(Cl)c3)cnc12`, the Potency was inconclusive [cytotoxic, single point]. For `O=S(=O)(Cc1ccccc1)C(CCCc1ccccc1)S(=O)(=O)Cc1ccccc1`, the “activity, negative = toxicity” value was inactive: -0.855%. For `Cc1ccc(OCCSc2ncccn2)c(C)c1`, the “activity, negative = toxicity” value was inactive: 3.39%. With `Cc1ccc(S(=O)(=O)N=N/C=C2\C=CC=CN2O)cc1` the “activity, negative = toxicity” value was inactive: 1.94%. For `CC1CCN(c2ccccc2NC(=S)NC(=O)c2cccs2)CC1`, the Potency was inconclusive [cytotoxic, single point]. For `CCCCN1CCc2c([nH]c3ccc(C)cc23)C1=O`, the Potency was inconclusive [rising, partial curve]. In the case of `Cc1nn(C)c(C)c1S(=O)(=O)N1CCCC(C(=O)N2CCN(c3ccc(Cl)cc3)CC2)C1` (configuration not stated), the Potency is reported as inconclusive [cytotoxic, single point]. In the case of `COc1ccc(OC)c(CN2CCCC(C(=O)c3ccccc3SC)C2)c1` (configuration not stated), the Potency is reported as inconclusive [cytotoxic, single point]. With `CCCCCCCCN1C(=O)[C@H](CC(=O)N2CCN(C(=O)OCC)CC2)C[C@@]2(C(=O)OCC)CCCC=C12` the Potency was inconclusive [cytotoxic, single point]. With `O=C(O)c1ccc(NC(=O)c2cn(-c3ccccc3)nc2-c2cccc(Cl)c2)cc1` the Potency was inconclusive [cytotoxic, single point]. For `Cc1ccc(-c2ccc(CN3C(C)C(=O)N(Cc4cn(Cc5ccco5)nn4)CCS3(=O)=O)cc2)cc1` (configuration not stated), the Potency was inconclusive [cytotoxic, single point]. With `CCOc1ccc(CCNC(=O)c2nn(C)c3c2CS(=O)(=O)c2ccccc2-3)cc1` the “activity, negative = toxicity” value was inactive: 0%. In the case of `CC(=O)Nc1cc(-c2ccc(C(=O)N3CCOCC3)cc2)cn2c(-c3ccc(F)c(Cl)c3)cnc12`, the Potency is reported as inconclusive [cytotoxic, single point]. For `Nc1ccc(C(=O)N2CCCC2)cc1`, the “activity, negative = toxicity” value was inactive: 12.5%. For `O=C(Nc1ccc(N2CCCCC2)cc1)c1ccccc1`, the Potency was inconclusive [cytotoxic, single point]. With `Cc1ccc(OCCn2cc(C(=S)N3CCCC3)c3ccccc32)cc1C` the Potency was active: 7.31 µM. For `CCn1ncc([N+](=O)[O-])c1C(=O)N1CCCC1`, the “activity, negative = toxicity” value was inactive: -1.94%. With `CCOC(=O)c1cnc(SC2CCc3ccccc3C2=O)nc1N` (configuration not stated) the Potency was inconclusive [cytotoxic, partial curve]. In the case of `CCOC(=O)c1c(NC(=O)C2=C(C)NC(=S)NC2c2ccc(F)cc2F)sc(C)c1C` (configuration not stated), the Potency is reported as inconclusive [cytotoxic, single point]. In the case of `N#Cc1nc(N2CCCC2)nc(N2CCCC2)n1`, the activity, negative = toxicity is reported as inconclusive: -32.4% [cytotoxic]. For `Cn1c(-c2ccc3ccccc3n2)[n+](C)c2ccccc21`, the Potency was inconclusive [cytotoxic, full curve]. For `CC1=C(C(=O)OCc2ccccc2)C(c2ccccc2OC(F)F)NC(=O)N1` (configuration not stated), the Potency was inconclusive [cytotoxic, single point]. With `COc1ccc(NC(=O)CSc2n[nH]c(CNc3cccc(C)c3)n2)cc1` the Potency was inconclusive [cytotoxic, partial curve].
